This note sets out measurements from publication PMC10304876 (Molecules, 2023).

Each structure is given as a SMILES string. “And” between values parts separate entries of the source, which are not always exact repeats. Identical values can stand only once. Bounds are passed on as bounds.

A word on the EC50: it is the concentration that produces a half-maximal response. A higher EC50 goes with a less potent agent.

This assay has as its target human κ-opioid receptor (OPRK1) (Homo sapiens, UniProt P41145). In words: cell-based. The settings on record: KOR Antagonist EC50 ± SEM (nM), cAMP assay; antagonist potency versus EC90 of U50488H. In general terms: cAMP levels reflect the balance of adenylyl cyclase and phosphodiesterase activity.
Chain of UniProt P41145 (P41145 whole entry): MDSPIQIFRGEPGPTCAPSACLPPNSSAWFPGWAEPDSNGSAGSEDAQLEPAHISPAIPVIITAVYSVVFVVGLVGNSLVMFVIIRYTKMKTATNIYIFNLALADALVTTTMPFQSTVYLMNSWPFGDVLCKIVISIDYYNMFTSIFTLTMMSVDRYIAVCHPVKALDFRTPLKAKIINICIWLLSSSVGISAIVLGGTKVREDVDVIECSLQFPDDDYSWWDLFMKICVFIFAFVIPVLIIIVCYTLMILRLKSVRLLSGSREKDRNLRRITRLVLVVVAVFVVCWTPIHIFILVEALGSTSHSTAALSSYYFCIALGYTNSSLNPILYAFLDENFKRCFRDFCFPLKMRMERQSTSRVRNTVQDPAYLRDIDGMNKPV
In the case of `OCCC[C@H]1[C@@H]2CCC[C@@]1(c1cccc(O)c1)CCN2CCc1ccccc1` [Compound 36], the EC50 stood at 180 ± 30 nM.

The compound `OC[C@H]1[C@H]2CCC[C@]1(c1cccc(O)c1)CCN2CCc1ccccc1` [Compound 11, 3-((1R,5S,9R)-9-(Hydroxymethyl)-2-phenethyl-2-azabicyclo[3.3.1]nonan-5-yl)phenol] gave an EC50 of 271 ± 92 nM.

For `OCC[C@H]1[C@@H]2CCC[C@@]1(c1cccc(O)c1)CCN2CCc1ccccc1` [Compound 21, 3-((1S,5R,9R)-9-(2-Hydroxyethyl)-2-phenethyl-2-azabicyclo[3.3.1]nonan-5-yl)phenol], the EC50 was > 100 nM and 111 nM.

The compound `OC[C@H]1[C@@H]2CCC[C@@]1(c1cccc(O)c1)CCN2CCc1ccccc1` [Compound 15, 3-((1S,5R,9R)-9-(Hydroxymethyl)-2-phenethyl-2-azabicyclo[3.3.1]nonan-5-yl)phenol] registered an EC50 of 24 ± 5 nM.

Take `OCCC[C@H]1[C@H]2CCC[C@]1(c1cccc(O)c1)CCN2CCc1ccccc1` [Compound 34, 3-((1R,5S,9R)-9-(3-Hydroxypropyl)-2-phenethyl-2-azabicyclo[3.3.1]nonan-5-yl)phenol]: the midpoint of the response, the EC50, lay at 1910 ± 571 nM.

`COC[C@H]1[C@H]2CCC[C@]1(c1cccc(O)c1)CCN2CCc1ccccc1` [Compound 41, 3-((1R,5S,9R)-9-(Methoxymethyl)-2-phenethyl-2-azabicyclo[3.3.1]nonan-5-yl)phenol] returned an EC50 of 1370 ± 361 nM.
